± gives the spread of the averaged measurements.
Columns and labels:
Experiment in all cases: optical density OD600 after 20 h growth (OD600 (absorbance)); higher = more growth (less inhibition)
[1] = test system: Escherichia coli DH5alphaPro empty vector control
Procedure: (§1)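 E. coli DH5alphaPro carrying an IPTG-inducible medium-copy plasmid (empty control, or overexpressing katG, lpxM or yfbR; 1 mM IPTG, 50 ug/mL kanamycin) grown in 96-well plates at 7 log-spaced antibiotic doses, sealed with paper film without mineral oil, 37 C, 250 rpm. Read-out is raw OD600 after 20 h (cell-free LB ~0.05); at least six biological replicates per strain and antibiotic; inter-day variability noted by authors.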

[2] = test system: Escherichia coli DH5alphaPro overexpressing yfbR
Procedure: as §1

[3] = test system: Escherichia coli DH5alphaPro overexpressing lpxM
Procedure: as §1

[4] = test system: Escherichia coli DH5alphaPro overexpressing katG
Procedure: as §1

CC1(C)S[C@@H]2[C@H](NC(=O)C(C(=O)O)c3ccccc3)C(=O)N2[C@H]1C(=O)O (stereo partly drawn) [carbenicillin]
optical density OD600
Settings	antibiotic concentration 0.05 ug/mL	antibiotic concentration 0.1581 ug/mL	antibiotic concentration 0.5 ug/mL	antibiotic concentration 1.5811 ug/mL	antibiotic concentration 5 ug/mL	antibiotic concentration 15.8114 ug/mL	antibiotic concentration 50 ug/mL
[1]	0.411 ± 0.066	0.398 ± 0.075	0.317 ± 0.11	0.167 ± 0.088	0.0712 ± 0.01	0.0591 ± 0.0045	–
[2]	0.381 ± 0.079	0.386 ± 0.092	0.339 ± 0.092	–	0.0722 ± 0.0093	0.0655 ± 0.023	–
[3]	0.466 ± 0.094	0.392 ± 0.2	0.387 ± 0.18	0.326 ± 0.15	0.176 ± 0.13	0.126 ± 0.098	–
[4]	0.46 ± 0.056	0.347 ± 0.17	0.311 ± 0.17	0.299 ± 0.12	0.23 ± 0.13	0.138 ± 0.11	0.0657 ± 0.015

CN[C@@H]1[C@H](O[C@H]2[C@H](O[C@H]3[C@H](O)[C@@H](O)[C@H](N=C(N)N)[C@@H](O)[C@@H]3N=C(N)N)O[C@@H](C)[C@]2(O)C=O)O[C@@H](CO)[C@H](O)[C@H]1O [streptomycin]
optical density OD600
Settings	antibiotic concentration 0.05 ug/mL	antibiotic concentration 0.1581 ug/mL	antibiotic concentration 0.5 ug/mL	antibiotic concentration 1.5811 ug/mL	antibiotic concentration 5 ug/mL	antibiotic concentration 15.8114 ug/mL	antibiotic concentration 50 ug/mL
[1]	0.71 ± 0.29	0.624 ± 0.19	0.684 ± 0.17	0.577 ± 0.13	0.575 ± 0.15	0.186 ± 0.13	–
[2]	0.655 ± 0.28	0.622 ± 0.3	0.606 ± 0.27	0.596 ± 0.21	0.639 ± 0.24	0.548 ± 0.25	0.0543 ± 0.0043
[3]	0.802 ± 0.27	0.716 ± 0.18	0.806 ± 0.22	0.811 ± 0.24	0.877 ± 0.25	0.696 ± 0.35	–
[4]	0.974 ± 0.29	0.977 ± 0.2	0.878 ± 0.27	0.866 ± 0.34	0.78 ± 0.22	0.493 ± 0.31	–

CC1(C)S[C@@H]2[C@H](NC(=O)[C@H](N)c3ccc(O)cc3)C(=O)N2[C@H]1C(=O)O.O=C(O)[C@H]1/C(=C/CO)O[C@@H]2CC(=O)N21 [amoxicillin/clavulanate]
optical density OD600
Settings	antibiotic concentration 0.01 ug/mL	antibiotic concentration 0.0316 ug/mL	antibiotic concentration 0.1 ug/mL	antibiotic concentration 0.3162 ug/mL	antibiotic concentration 1 ug/mL	antibiotic concentration 3.1623 ug/mL	antibiotic concentration 10 ug/mL
[1]	0.678 ± 0.18	0.619 ± 0.19	0.721 ± 0.16	0.646 ± 0.14	0.718 ± 0.18	–	< 0.05
[2]	0.496 ± 0.18	0.572 ± 0.21	0.597 ± 0.26	0.626 ± 0.25	0.501 ± 0.16	0.0624 ± 0.0089	–
[3]	0.666 ± 0.17	0.724 ± 0.19	0.865 ± 0.17	0.77 ± 0.14	0.676 ± 0.073	–	–
[4]	0.89 ± 0.24	0.922 ± 0.26	0.797 ± 0.27	0.788 ± 0.3	0.732 ± 0.31	–	< 0.05

CNC(C)C1CCC(N)C(OC2C(N)CC(N)C(OC3OCC(C)(O)C(NC)C3O)C2O)O1 (stereo not drawn) [gentamicin]
optical density OD600
Settings	[1]	[2]	[3]	[4]
antibiotic concentration 0.05 ug/mL	0.496 ± 0.2	0.631 ± 0.29	0.646 ± 0.18	0.768 ± 0.24
antibiotic concentration 0.1581 ug/mL	0.123 ± 0.058	0.312 ± 0.17	0.189 ± 0.061	0.301 ± 0.17

O=C(N[C@H](CO)[C@H](O)c1ccc([N+](=O)[O-])cc1)C(Cl)Cl [chloramphenicol]
optical density OD600
Settings	antibiotic concentration 0.05 ug/mL	antibiotic concentration 0.1581 ug/mL	antibiotic concentration 0.5 ug/mL	antibiotic concentration 1.5811 ug/mL	antibiotic concentration 5 ug/mL	antibiotic concentration 15.8114 ug/mL
[1]	0.659 ± 0.23	0.768 ± 0.3	0.691 ± 0.21	0.566 ± 0.21	0.122 ± 0.046	–
[2]	0.587 ± 0.26	0.645 ± 0.26	0.623 ± 0.28	0.436 ± 0.24	0.176 ± 0.11	0.0618 ± 0.012
[3]	0.861 ± 0.23	0.82 ± 0.27	0.744 ± 0.25	0.638 ± 0.24	0.262 ± 0.15	0.0709 ± 0.026
[4]	0.861 ± 0.24	0.791 ± 0.33	0.716 ± 0.22	0.579 ± 0.22	0.321 ± 0.2	–

O=C(O)c1cn(C2CC2)c2cc(N3CCNCC3)c(F)cc2c1=O [ciprofloxacin]
optical density OD600
Settings	antibiotic concentration 0.001 ug/mL	antibiotic concentration 0.0032 ug/mL	antibiotic concentration 0.01 ug/mL	antibiotic concentration 0.0316 ug/mL	antibiotic concentration 0.1 ug/mL	antibiotic concentration 0.3162 ug/mL	antibiotic concentration 1 ug/mL
[1]	0.645 ± 0.23	0.595 ± 0.2	0.588 ± 0.19	0.492 ± 0.26	0.114 ± 0.024	0.0732 ± 0.019	0.0578 ± 0.0039
[2]	0.613 ± 0.22	0.64 ± 0.29	0.642 ± 0.31	0.451 ± 0.23	0.124 ± 0.053	0.065 ± 0.0077	0.117 ± 0.17
[3]	0.816 ± 0.28	0.804 ± 0.27	0.688 ± 0.36	0.511 ± 0.36	0.136 ± 0.065	0.074 ± 0.024	0.0561 ± 0.0014
[4]	0.836 ± 0.31	0.88 ± 0.32	0.805 ± 0.3	0.622 ± 0.38	0.155 ± 0.092	0.0822 ± 0.037	–

CO/N=C(\C(=O)N[C@@H]1C(=O)N2C(C(=O)O)=C(CSc3nc(=O)c(O)nn3C)CS[C@H]12)c1csc(N)n1 [ceftriaxone]
optical density OD600
Settings	antibiotic concentration 0.016 ug/mL	antibiotic concentration 0.0506 ug/mL	antibiotic concentration 0.16 ug/mL	antibiotic concentration 0.506 ug/mL	antibiotic concentration 1.6 ug/mL	antibiotic concentration 5.0596 ug/mL	antibiotic concentration 16 ug/mL
[1]	0.318 ± 0.44	0.1 ± 0.045	0.0964 ± 0.05	0.113 ± 0.051	0.102 ± 0.046	0.0759 ± 0.027	< 0.05
[2]	0.238 ± 0.25	0.0757 ± 0.0062	0.0716 ± 0.0091	0.0682 ± 0.0056	0.0862 ± 0.012	0.0579 ± 0.0058	< 0.05
[3]	0.375 ± 0.042	0.133 ± 0.014	0.122 ± 0.0035	0.121 ± 0.045	0.123 ± 0.03	0.0683 ± 0.022	< 0.05
[4]	0.441 ± 0.18	0.324 ± 0.19	0.3 ± 0.23	0.238 ± 0.12	0.217 ± 0.097	0.0863 ± 0.039	–

C[C@@H](O)[C@H]1C(=O)N2C(C(=O)O)=C(S[C@@H]3CN[C@H](C(=O)Nc4cccc(C(=O)O)c4)C3)[C@H](C)[C@H]12 [ertapenem]
optical density OD600
Settings	antibiotic concentration 0.01 ug/mL	antibiotic concentration 0.0316 ug/mL	antibiotic concentration 0.1 ug/mL	antibiotic concentration 0.3162 ug/mL	antibiotic concentration 1 ug/mL	antibiotic concentration 3.1623 ug/mL	antibiotic concentration 10 ug/mL
[1]	0.722 ± 0.18	0.764 ± 0.29	0.899 ± 0.23	0.85 ± 0.24	0.837 ± 0.22	0.833 ± 0.2	–
[2]	0.71 ± 0.33	0.6 ± 0.27	0.674 ± 0.34	0.668 ± 0.33	0.614 ± 0.26	0.487 ± 0.18	0.0717 ± 0.016
[3]	0.838 ± 0.21	0.717 ± 0.23	0.826 ± 0.23	0.85 ± 0.31	0.879 ± 0.29	0.785 ± 0.18	0.116 ± 0.088
[4]	0.733 ± 0.27	0.679 ± 0.3	0.808 ± 0.27	0.818 ± 0.42	0.808 ± 0.35	0.687 ± 0.23	0.0979 ± 0.043

From the supplement of paper PMC9750983
